# Data as given in the RNAGym collection of RNA variant scans (doi:10.7554/elife.90254).
# Read counts are not given, so values of variants with three or more changes are uncertain.
# B1: LINE1-full (parent)
# chain: UACGUAGGUGGUUUUCCCCUGAUAGUGCUAAGGGGGCCUGGAAGUUUGGACUGGGCAGAGCUCAACACAGCGUGGCAAAGUGGCUGUGGCUAGACUGCCUCUCUGGAUUCCUCGUCACUCAGCAGGGCAUCUCUGAGAGAAAUGCC
# Variants of: B1
# Assay: self-cleavage, relative activity (ratio to wild type); higher = more cleavage; in vitro, sequencing; the parent is a self-cleaving ribozyme
row,Variant,self-cleavage
1,UACGUAGGUGGUUUUCCCCUGAUAGUGCUAAGGGGGCCCGGAAGUUUGGACUGGGCAGAGCCCAACACAGCGUGGCAAAGUGUCUGUGGCUAGACUGCCUCUCUGGAUUCCUCGUCACUCAACAGGGCAUCUCUGAGAGAAAUGCC,0.03
2,UACGUAGGAGGUUUUCCCCUGAUAGUGCUAAGGGGGCCUGGAAGUUUGGACUGGGCAGAGCUCAACACAGCUUGGCAGAGUGGCUGUGGCUAGACUGCCUCUCUGGAUUCCUCGUCACUCAGCAGGGCAUCUCUGAGAGGGAUGCC,1.51
3,UACGUAGGUGGUUUUCCCCUGAUAGUGCUGAGGGGGCCUGGAAGUUUGGACUGGGCAGAGCUCGACACAGCGUGGCGGAGUGGCUGUGGCUAGACUGCCUCUCUGGAUUCCUCGUCACUCAGCAGGGCAUCUCUGAGAGAAAUGCC,0
4,UACGUAGGUGGUUUUCCCCUGAUAGUGCUAAGGGGGCCUGGAAGUUUGGACUGGGCAGAGUUCAACACGGCGUGGCAAAGUGGCUGUGGCUAGACUGCCUCUCUGGAUUCCUCGUCACUCAGCAGGGCAUCUCAGAGAGAAAUGCC,0.06
5,UGCGUAGGUGGUUUUCCCCUGAUAGUGCUAAGGGGGCCCGGAAGUUUGGACUGGGCAGAGCUCAACACAGCGUGGCGAAGUGGCUGUGGCUAGACUGCCUCUCUGGAUUCCUCGUCACUCAGCAGGGCGUCUCUGAGAGAAAUGCC,1.15
6,UACGUAGGUGGUUUUCCCCUGAUAGCGCUAAGGGGGCCUGGAAGUUCGGACUGGGCGGUGCUCAACACAGCGUGGCAAAGUGGCUGUGGUUAGACUGCCUCUCUGGAUUCCUCGUCACUCAGCAGGGCAUCCCUGAGAGGAAUGCC,0.11
7,UACGUAGGUGGUUUUCCCCUGAUAGUGCUAAGGGGGCCUGGAAGUUUGGACUGGGCAGAGCUCAACACAGCGUGGCAGAGUGGCUGUGGCAAGACUGCCUCUCAGGAUCCCUCGUCACUCAGCAGGGCAUCUCUGAGAGAAAUGCC,0.21
8,UACGUAGGUGGUUUUCCCCUGAUAGUGCUAAGGGGGCCUGGAAGUAUGGACUGGGCAGAGCUCAACACAGCGUGGCAAAGUGGCUGUGGCUAGACUGCCUCUCUGGAUUCCUCGUCAUUUAGCAGGGCAUCUCUGAGAGAAAUGCC,1.14
9,UACGUAGGUGAUUUUCCCCUGAUAGUGCUAAGGGGGCCUGGAAGUUUGGACUGGGCAGAGCCCAACACAGCGUGGCAAAGUGGCUGUGGCUAGACUGCCUCUCAGGAUUCCUCGUCACUCAGCAGGGCAUCUCUGAGAGAAAUGCC,0.05
10,UACGUAGGUGGUUUUCCCCUGAUAGUGCUAAGGGGGCCUGGAAGUUUGGACUGGGCAGAGCUCAACGCAGCGUGGCAAAGUGGCUGUGGCUAGACUGCCUCUCUGGAUUCCUCGUCACUCAGCAGGGCGUCUCUGAGAGGAAUGCC,1.15
11,UACGUAGGUGGUUUUCCCCUGAUAGUGCUAAGGGUGCCUGGAAGUUUGGACUGGGCAGAGCUCAACACAGCGAGGCAAAGUGGCUGUGGCUAGACUGCCUCUCUGGAUUCCUCGUCACUCAGCAGGGCAUCUCUGAGAGAUAUGCC,1.34
12,UACGUAGGUGGUUUUCCCCUGAUAGUGCUAAGGGGUCCUGGGAGUUUGGACUGGGCAGAGCUCAACACAGCGUGGCAAAGUGGCUGUGGCUAGACUGCCUCUCUGGAUUCCCCGUCACUCAGCAGGGCAUCUCUGAGAGAAAUGCC,0.82
13,UACGUAGGUGGUUUUCCCCUGAUAGUGCUUAGGGGGCCUGGAAGUUUGGACUGGGCAGAGCUCAGCACAGCAUGGCAAAGUGGCUGUGGCUAGACUGCCUCUCCGGAUUCCCCGUCACUCAGCAGGGCAUCUCUGAGGGAAAUGCC,0
14,UACGUAGGUGGUUUUCCCCUGAAAGUGCUAAGGGGGCCUGGAAGUUUGGACUGGGCAGAGCCCGACACAGCGUGGCAAAGUGGCUGUGGCUAGACUGCCCCUCUGGAUUCCUCGUCACUCAGCAGGGCAUCUCUGAGAGAAAUGCC,0.22
15,UACGUAGGUGGUUUUCCCCAGAUAGUGCUAAGGGGGCCUGGAAGUUUGGACUGGGCAGAGCUCAACACAGCGUGGCGAAGUGGCUGUGGCUAGACUGCCUCUCUGGAUUCCUCGUCACUCAUCAGGGCAUCUCUGAGAGAAAUGCC,1.14
16,UACGUAGGUGGUUUUCCCCUGAUAGUGCUAAGGGGGCCUGGAAGUUUGGACUGGGCAGAGCUCAACACAGCGCGGCUAAGUGGCUGUGGCUAGACUGCCUCUCUGGAUUCCUCGUCACUCAACAGGGCAUCUCUGAGAGAAAUGCC,1.79
17,UACGUAGGUGGUUUUCCCCUGAUAGUGCUAAGGGGGCCUGGAAGUUUGGACUGGGCAGAGCUCAACACAGCGUGGCAAAGUGGCUGUGGCUAGACUGCCUCUCUGGAUUCCUCGUCACUCAGCAGGGCAGCUCUGAGGGAAACGCC,1.31
18,UACGUAGGUAGUCUUCCCCUUAUAGUGCUAAGGGGGCCUGGAAGUUUGGACUGGGCAGAGCUCAACACAGCGUGGCAAAGUGGCUGUGGCUAGACUGCCUCUCUGGAUUCCUCGUCACUCAGCAGGUCAUCUCUGAGAGAAAUGCC,0
19,UACGUAGGUGGUUUUCCCCUGAUAGUGCUAAGGGGGCCUGGAAGUUAGGACUGGGCGGAGCUCAACACAGCGCGGCAAAGUGGCUGUGGCUAGACUGCCUCUCUGGAUUCCUCGACACUCAGCAGGGCAUCUCUGAGAGAAAUGCC,0.77
20,UACGUAGGUGGUUUUCCCCUGAUAGUGCUAAGGGGGCCUAGAAGUUUGGACUGGGCAGAGCUCAACACAGCGUGGCGAAGUGGCUGUGGCUAGACUGCCUCUCUGGAUUCCUCGUCACUCGGCAGGGCAUCUCUGAGAGAAAUGCC,2.12

row,Variant,self-cleavage
1,AACGUAGGUGGUUUUCCCCUGAUAGUGCUAAGGGGGCCUGGAAGUCUGGACUGGGCAGAGCUCAACACAGCGUGGCAAAGUGGCUGUGGCUGGACUGCCUCUCUGGAUUCCUCGUCACUCAGCAGGGCAUCUCUGAGAGAAAUGCC,0.31
2,UACGUAGGUGGUUUUCCCCUGAUAGUGCUAAGGGGGCCUGGAAGUUUGGACUGGGCAGAGCUCAACACAGCGUGGCUAAGUGGCUGUGGCUAGACUGCCUCCCCGGACUCCUCGUCACUCAGCAGGGCAUCUCUGUGAGAAGUGCC,2.3
3,UACGUAGGUGGUUUUCCCCUGAUAGUGCUAAGGGGGCCUGGAAGUUUGGACUGGGCCGAGCUCAACACAGCGUGGCAAAGUGGCUGUGGCUAGACUGCCUCCCUGGACUCCUCGUCACUCAGCAGGGCAUCUCUGAGAGAAAUGCC,0
4,UACGUAGGUGGUUUUCCCCUGAUAGUGCUAAGGGGGCCUGGAAGUUUGGACCGGGCAGAGCCCAACACAGCGUGGCAAAGUGGCUGUGGCUAGACUGCCUCUCUGGAUUCCUCGUCACUCAACAGGGCAUCUCAGAGAGAAAUGCC,0.08
5,UACGUAGGUGGUUUCCCCCUGAUAGUGCUAAGGGGGCCUGGAAGUUUGGACUGGGCAGAGAUCAACACAGCGUGGCAAAGUGGCCGUGGCUAAACAGCCUCUCUGGAUUCCUCGUCACUCAGCAGGGCAUCUCUGAGAGAGAUGCC,0.04
6,UACGUACGCGGUUUUCCCCCGAUAGUGCUGAGGGGGCCUGGAAGUUUGGACUGGGCAGAGCUCAACACAGCGUGGCAAAGUGGCUGUGGCUAGACUGCCUCUCUGGGUUCCUCGUCACUCAGCAGGGCAUCUCUGAGAGAAAUGCC,0
7,UACGCAGGUGGUAUUCCCCUGAUAGUGCUAAGGGGGCCUGGAAGUUUGGACUGGGCAGAGCUCAACACAGCGUGGCAAAGUGGCUGUGGCUAGACUGCCCCUCUGGAUUCCUCGUCACUCAGCAGGGCAUCUCUGAGAGAAAUGCC,0
8,UGCGUAGGUGGAUUUCCCCUGAUAGUGCUAAGGGGGCCUGGAAGUUUGGACUGGGCAGAGCUCAACACAGCGUGGCAAAGUGGCUGUGGCUAGACUGCCUCUCUGGAUUCCUCGUCACUCAGCAGGGCAUCUCUGAGUGAAAUGCC,1.26
9,UACGUAGGUGGUUUUCCCCUGAUAGUGCUAAGGGGGCCUGGAAGUUUGGACUGGGCAGAGCUCAACACAGCGUGGCAAAGUGGCUGUGGCUAGACUGCCUCUCUGGAUUCCUCGUCUCCCAGCAGGGCAUCUCUGAGAGAAAAGCC,1.2
10,UACGAAGGUGGUUUACCCCUGAUAGUGCUAAGGGGGCCUGGAAGUUCGGACUGGGCAGAGCUCAACACAGCUUGGCAAAGUGGCUGUGGCUAGACUGCCUCUCUGGAUUCCUCGUCACUCAGCAGGGCAUCUCUGAGAGAAAUGCC,1.06
11,UACGUAGGUGGUUUUCCCCAGAUAGUGCUAAGGGGGCCUGGAAGUUUGGACUGGGCUGAGCUCAACACGGCGUGGCAAAGUGGCUGUGGCUAGACUGCCUCUCUGGAUUCCUCGUCACUCUGCAGGGCAUCUCUGAGAGAAAUGCC,0
12,UACGUAGGUGGUUUUCCCUUGAUAGUGCUAAGGGGGCCGGGAAGUUUGGACUGGGCAGAGCUCAACACAGCGUGGCAAAGUGGCUGUGGCUAGACUGCCCCUCUGGAUUCCUCGUCACUCUGCAGGGCAUCUCUGAGAGAAAUGCC,1.25
13,UACGUAGGUGGUUUUCCCCUGAUAGUGCUAAGGGGGCCUGGAAGUUUGGACUGGGCCGAGCUCAACACAGCGUGGCAAAGUGGCUGUGGCUUGACAGCCUCUCUGGAUUCCUCGUCACUCAGCAGGGCAUCUCUGAGAGAAAUGCC,0.02
14,UACGUAGGUGGUUUUCCCCUGAUAGUGCUAAGGGGGCCUGGAAGUUUGGACUGGGCAGAGCUCAACACAGCGAGGCAAAGUGGCUGCGGCUAGACUGCCUCUCUGGAUUCCUCGUCACUCAGCAGGGCAUCUCUGAGAGAUGUGCC,0.1
15,UACGUAUGUGGGUUUCCCCAGAUAGUGCUAAGGGGGCCUGGAAGUUUGGACUGGGCAGAGCUCAACACAGCGAGGCAAAGUGGCUGUGGCUAGACUGCCUCUCUGGAUUCUUCGUCACUCAGCAGGGCAUCUCUGAGAGAAAUGCC,1.65
16,UACGUAGGUGGUUUUCCCCUGAUAGUGCUAAGGGGGCCUGGAAGUUUGGACUGGGCAGAGCUCAACACAGCAUGGCAAAGUGGCUGUGGCUAGACUGCCUCUCUGGAUUCCCCGUCACUCAGCAGGGCAUCUCUGAGUGAAAUGUC,1.23
17,UACGUAGGUGGUUUUCCCCUGAUAGUGCUAAGGGGGCCUGGAAGUUUGGACUGGGCAGAGCACAACACAGCGUGGCAAAGUGGCUGUGGCUAGACUGCCUCUCUGGAUUCCUCGUCACUCGGCAGGGCAUCUCUGAGAGAGAUGCC,0.05
18,UACGUAGGUGGUUUCCCCCUGAUAGCGCUAAGGGGGCCUGGAAGUUUGGACUGGGCAGAGCUCAACACAGCGUGGCAAAGUGGCUGUGGCUAGACUGCCUCUCUGGAUUCCUCGUCACUCAGCAGGGCCUCUCUGAGAGAAGUGCC,1.53
19,UACGUAGGUGGUUUUCCCCUGGUAGUGCUAAGGGGGCCUGGAAGUUUGGACUGGGCAGAGCUCUACACAGCGUGGCAAAGUGGCUGUGGCUAGACUGCCUCUCUGGAUUCCUCGUCACUCAGCAGGCCAUCUCUGAGAGAAAUGCC,0.48
